{"source": "PubChem BioAssay AID488969", "about": "(Vanderbilt High Throughput Screening Facility, 2010)", "note": "In all, about 110,000 compounds were measured (“z-score”: median about -0.1, highest 2% from about 2 on). Some of the results follow.", "data": [{"molecular_target": "Metabotropic glutamate receptor 8 (Rattus norvegicus) (UniProt P70579)", "sequence (P70579 whole entry, looked up)": "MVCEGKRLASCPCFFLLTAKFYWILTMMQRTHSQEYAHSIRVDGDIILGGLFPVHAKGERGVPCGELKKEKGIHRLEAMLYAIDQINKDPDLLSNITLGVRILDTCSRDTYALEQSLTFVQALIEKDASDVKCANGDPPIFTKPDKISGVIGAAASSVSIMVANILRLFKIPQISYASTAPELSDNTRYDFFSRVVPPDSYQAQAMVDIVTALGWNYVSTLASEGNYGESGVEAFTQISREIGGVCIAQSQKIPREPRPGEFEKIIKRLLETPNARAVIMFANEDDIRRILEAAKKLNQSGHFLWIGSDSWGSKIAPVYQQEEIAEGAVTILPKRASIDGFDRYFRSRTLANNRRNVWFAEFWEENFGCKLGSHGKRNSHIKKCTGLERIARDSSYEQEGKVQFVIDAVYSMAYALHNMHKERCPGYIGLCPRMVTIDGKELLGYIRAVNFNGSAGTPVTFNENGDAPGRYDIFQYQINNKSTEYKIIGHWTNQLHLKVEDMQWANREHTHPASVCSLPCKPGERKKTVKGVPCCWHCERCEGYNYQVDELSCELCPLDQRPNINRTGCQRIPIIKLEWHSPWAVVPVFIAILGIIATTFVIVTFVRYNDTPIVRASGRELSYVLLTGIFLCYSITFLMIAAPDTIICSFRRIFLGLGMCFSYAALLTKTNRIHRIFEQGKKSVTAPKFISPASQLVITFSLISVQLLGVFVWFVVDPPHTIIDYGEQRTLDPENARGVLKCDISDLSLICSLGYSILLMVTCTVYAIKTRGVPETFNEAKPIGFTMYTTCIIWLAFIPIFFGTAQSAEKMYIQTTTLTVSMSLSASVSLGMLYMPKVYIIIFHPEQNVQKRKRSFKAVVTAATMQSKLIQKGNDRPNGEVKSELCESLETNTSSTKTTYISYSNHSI", "test": "mGluR8 Gi/Go-coupled signaling modulation – cell-based, rat, thallium flux, HTS, primary screen (AID 488969)", "conditions": "HEK293 rat mGluR8, GIRK (G protein-gated inwardly rectifying potassium channel) thallium flux, FluoZin2; at 10 µM; stronger effect = higher value; submaximal glutamate (EC20) added with thallium", "values": [{"smiles": "Cc1ccc(Cc2cnc(NC(=O)C3CCCO3)s2)cc1", "note": "(stereo not drawn)", "z-score": -0.316}, {"smiles": "CCOc1ccc(CNC(=O)CCn2c(=O)oc3ccccc32)cc1OC", "z-score": 0.903}, {"smiles": "N#CC(c1cccc(Cl)c1)c1ncc(C(F)(F)F)cc1Cl", "note": "(stereo not drawn)", "z-score": -0.146}, {"smiles": "Cn1c2c(c(=O)n(C)c1=O)CN(Cc1ccc(F)cc1)CN2", "z-score": 0.281}, {"smiles": "CN(CC(=O)NCc1ccc(Cl)cc1)S(=O)(=O)c1cccc2nsnc12", "z-score": -0.323}, {"smiles": "Cc1cccc(C(=O)Nc2cc(OCc3cccc(F)c3)c(Cl)cc2Cl)c1", "z-score": 0.182}, {"smiles": "COc1ccc(S(=O)(=O)NC(Cc2cnc[nH]2)C(=O)O)cc1", "note": "(stereo not drawn)", "z-score": -0.0594}, {"smiles": "CCOc1ccc(NC(=O)CCn2cccc2)cc1", "z-score": -0.228}, {"smiles": "Cc1c(C(=O)N2CCCC2)sc(NC(=O)c2cccc(Cl)c2)c1C#N", "z-score": -2.18}, {"smiles": "CCN1C(=O)C(CC(=O)N2CCN(C(c3ccccc3)c3ccccc3)CC2)N(CC)C1=O", "note": "(stereo not drawn)", "z-score": -0.00737}, {"smiles": "C=CCn1c(SCC(=O)c2[nH]c(C)c(C(=O)OC)c2C)nc2scc(-c3ccc(OC)c(OC)c3)c2c1=O", "z-score": -0.0245}, {"smiles": "COc1ccc(-c2noc(CCCC(=O)NCCc3ccccc3)n2)cc1OC", "z-score": -0.361}, {"smiles": "CC(Oc1ccc2ccc(=O)oc2c1)C(=O)c1ccccc1", "note": "(stereo not drawn)", "z-score": 0.00606}, {"smiles": "CCCCCCCCOC(=O)C1=C(C)Nc2nnnn2C1c1cccs1", "note": "(stereo not drawn)", "z-score": 0.117}, {"smiles": "CCC(C)NC(=O)CSC1=Nc2ccccc2C2=NC(CC(=O)NCc3ccccc3)C(=O)N12", "note": "(stereo not drawn)", "z-score": -0.278}, {"smiles": "COCCOC(=O)c1c(C)nc(SCC(=O)Nc2ccc(OC)cc2)c(C#N)c1-c1ccco1", "z-score": 0.597}, {"smiles": "CCCCC(CC)CNC(=O)c1cccs1", "note": "(stereo not drawn)", "z-score": -0.164}, {"smiles": "CCOc1ccc2nc(C)cc(Nc3ccc4c(c3)OCCO4)c2c1", "z-score": -0.142}, {"smiles": "CCOc1cc(NC(=S)NCc2ccco2)c(OCC)cc1NC(C)=O", "z-score": -0.0846}, {"smiles": "Cc1ccccc1NC(=O)CN(c1ccc(F)cc1)S(C)(=O)=O", "z-score": 0.203}, {"smiles": "CN1CCN(c2ccc(S(=O)(=O)N3CCCCC3)cc2NC(=O)c2ccc3ccccc3c2)CC1", "z-score": -0.247}, {"smiles": "COc1ccc(OCCC(=O)OCC(=O)NC(=O)NC(C)(C)C)cc1", "z-score": 0.144}, {"smiles": "CC1CCCCN1C(=O)CSc1nnc(-c2ccco2)n1CC1CCCO1", "note": "(stereo not drawn)", "z-score": -0.338}, {"smiles": "COc1cc(NC(=O)CSCC(=O)Nc2cccc(C(F)(F)F)c2)c(Cl)cc1Cl", "z-score": -0.193}, {"smiles": "COc1ccc(/C=C/C(=O)N(CC(C)C)CC(C)C)cc1Br", "z-score": 0.14}, {"smiles": "Cc1ccc(N2C(=O)/C(=C\\c3ccco3)SC2=S)cc1", "z-score": 0.0852}, {"smiles": "Cc1ccc(CNC(=O)CCNC(=O)c2ccc(Br)o2)cc1", "z-score": 0.452}, {"smiles": "O=C(Nc1ccccc1N1CCCCC1)c1ccc(-c2ccc(Cl)cc2)o1", "z-score": -0.176}, {"smiles": "O=c1ccn(Cc2ccccc2)c(=O)n1Cc1ccccc1", "z-score": -0.295}, {"smiles": "CCc1ccc(C(=O)NC(CCSC)C(=O)O)cc1", "note": "(stereo not drawn)", "z-score": 0.0962}, {"smiles": "COc1ccc(/C(C)=N\\Nc2nc(-c3ccc(Cl)cc3)cc(C(F)(F)F)n2)cc1OC", "z-score": -0.264}, {"smiles": "CN(C1CCS(=O)(=O)C1)S(=O)C12CC3CC(CC(C3)C1)C2", "note": "(stereo not drawn)", "z-score": 0.236}, {"smiles": "COc1ccc(C(=O)Oc2cc(/C=N/NC(N)=S)ccc2OC)cc1", "z-score": -0.115}, {"smiles": "COc1ccc(OCc2nc3ccc(S(=O)(=O)Nc4ccccc4Cl)cc3[nH]2)cc1", "z-score": -0.822}, {"smiles": "COc1cccc(OC)c1C(=O)N1CC(C)OC(C)C1", "note": "(stereo not drawn)", "z-score": 0.174}, {"smiles": "O=C(Nc1ccc2nc3ccccc3nc2c1)c1ccccc1", "z-score": -0.114}, {"smiles": "Cc1cc(C)c(S(=O)(=O)NCC23C=CC(O2)C2C(=O)N(c4ccccc4)C(=O)C23)c(C)c1", "note": "(stereo not drawn)", "z-score": -0.099}, {"smiles": "O=C1ON=C(c2ccccc2)/C1=C/c1ccc(-c2ccccc2[N+](=O)[O-])o1", "z-score": -0.863}, {"smiles": "Brc1ccc(-c2nnc3n2C2(CCCC2)Cc2ccccc2-3)o1", "z-score": -0.348}, {"smiles": "CC(=O)NC1CC2CCCC(C1)N2CC(=O)Nc1ccccc1", "note": "(stereo not drawn)", "z-score": -0.137}, {"smiles": "CCn1c(Cn2nnc(-c3ccccc3)n2)nnc1SCC(=O)Nc1cccc(C(C)=O)c1", "z-score": -1.29}, {"smiles": "Cc1c(C(=O)Nc2ccc(Cl)cc2)c2ccccn2c1CCc1ccncc1", "z-score": 0.14}, {"smiles": "Cc1c(C(=O)OCC2CCCO2)[nH]c2c1C(=O)CC(c1ccco1)C2", "note": "(stereo not drawn)", "z-score": -0.462}, {"smiles": "CCCCc1nnc(NC(=O)CSc2nc(C)cc(=O)[nH]2)s1", "z-score": -1.47}, {"smiles": "Cc1cccc(C)c1NC(=O)C(C)c1ccc(-c2ccccc2)c(F)c1", "note": "(stereo not drawn)", "z-score": -0.337}, {"smiles": "O=C(COC(=O)C1(c2ccccc2F)CCCC1)NC1CCS(=O)(=O)C1", "note": "(stereo not drawn)", "z-score": 0.705}, {"smiles": "COc1cc2c(=O)n(CCCN3CCOCC3)c(=S)[nH]c2c(OC)c1OC", "z-score": 2.07}, {"smiles": "O=C(OCCCc1ccncc1)c1ccc(S(=O)(=O)N2CCOCC2)cc1", "z-score": -0.0438}, {"smiles": "O=C(N/C=N/OCc1cccc(C(F)(F)F)c1)N1OC[C@@H]2COc3ccc4ccccc4c3[C@@H]21", "z-score": -0.0982}, {"smiles": "CCOC(=O)CSc1nnc(-c2ccoc2C)n1-c1ccc(C)cc1", "z-score": -0.0495}, {"smiles": "CC(C)c1ccc(Oc2cccc(C(=O)/C(C#N)=C/N(C)C)c2)cc1", "z-score": -0.286}, {"smiles": "O=S(=O)(Nn1cnnc1)c1ccccc1Cl", "z-score": -0.31}, {"smiles": "O=C(NCCc1ccccc1)C1CCCN(S(=O)(=O)c2cnc[nH]2)C1", "note": "(stereo not drawn)", "z-score": 0.503}, {"smiles": "C/C(NCc1ccccc1)=C(\\C#N)C(=O)NCc1ccccc1", "z-score": 0.338}, {"smiles": "COc1ccc(C(=O)NNC(=O)c2cc3cc([N+](=O)[O-])ccc3oc2=O)cc1OC", "z-score": -0.394}, {"smiles": "Nc1nnnn1/N=C/c1cc(Cl)cc(Cl)c1OCc1ccc(Cl)cc1Cl", "z-score": -0.095}, {"smiles": "O=C1CN(C(=O)CSc2nc(-c3ccccc3)cs2)c2ccccc2N1", "z-score": -0.563}, {"smiles": "CCOC(=O)C(C(=O)OCC)C(C#N)c1ccccc1", "note": "(stereo not drawn)", "z-score": -0.148}, {"smiles": "CCOC(=O)c1c(C)oc2c1c(C(c1ccncc1)N1CCOCC1)c(O)c1ccccc12", "note": "(stereo not drawn)", "z-score": -2}, {"smiles": "COC(=O)c1c(-c2ccc(OC)c(OC)c2)csc1N", "z-score": 0.119}, {"smiles": "COC(=O)C1=C(C)NC2=C(C(=O)CCC2)C1c1cn(Cc2ccc(Br)cc2)nc1-c1ccccc1", "note": "(stereo not drawn)", "z-score": -0.666}, {"smiles": "Cc1c(NC(=O)c2cc(-c3cccs3)on2)c(=O)n(-c2ccccc2)n1C", "z-score": 0.165}, {"smiles": "Cc1ccc2occ(C(c3nnnn3Cc3ccccc3)N3CCOCC3)c(=O)c2c1", "note": "(stereo not drawn)", "z-score": -0.343}, {"smiles": "COc1ccccc1/C=C/C(=O)OCCN1CCOCC1", "z-score": 0.0154}, {"smiles": "C=CCn1c(SCC(N)=O)nnc1-c1cc(Br)ccc1O", "z-score": 0.451}, {"smiles": "Cc1ccc2c(c1)C(c1ccc(N3CCOCC3)cc1)=NNC(c1cccs1)=N2", "z-score": -0.328}, {"smiles": "Cc1c(NC(=O)Cn2[nH]c(=O)c3ccccc3c2=O)c(=O)n(-c2ccccc2)n1C", "z-score": -0.00413}, {"smiles": "COC(=O)C1=C(C)N=c2s/c(=C/c3ccoc3)c(=O)n2C1c1ccccc1", "note": "(stereo not drawn)", "z-score": -0.423}]}]}
